Results on 84 variants are retold here after the RNAGym collection of RNA variant scans (doi:10.1073/pnas.2313332121).

Variants at the background level are over-represented here. A value given as a limit tells only on which side of the number the result lay.

Sequences and labels used below:
B1: TPR 5TU (parent)
chain: GGAUCUUCUCGAUCUAACAAAAAAGACAAAUCUGCCACAAAGCUUGAGAGCAUCUUCGGAUGCAGAGGCGGCAGCCUUCGGUGGCGCGAUAGCGCCAACGUUCUCAACUAUGACACGCAAAACGCGUGCUCCGUUGAAUGGAGUUUAUCAUG

In the series the parent is B1. As to the kind of experiment: polymerase ribozyme fitness, log enrichment relative to wild type (log ratio); higher = more active; in vitro selection for triplet polymerase activity. Put shortly:
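Frozen incubation at −7 °C formed the core of a single, triplicate in vitro selection round applied to PCR-built, transcribed mutant libraries of each subunit of a heterodimeric triplet polymerase ribozyme. Extended constructs were gel-excised, captured with streptavidin beads and amplified by RT-PCR, and input and output libraries were Illumina-sequenced with a filter of ≥10 input reads and ≥1 read per output. Fitness is the logarithm of genotype enrichment relative to wild-type enrichment, with inverse-variance-weighted replicate averaging, and the logarithm is base 2.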
As to C36U U53A A119G, the “polymerase ribozyme fitness (log ratio)” value was -1.17.
Turning to C35G C69A U101C U127A, the “polymerase ribozyme fitness (log ratio)” value was at most -4.2.
With C35U G70A U90G U130G G133U, the “polymerase ribozyme fitness (log ratio)” value is at most -4.2.
The same measure for C36G U53C G67C G92C G126A: at most -4.2; for A37C C38U G71A U109G C123G: at most -4.2.
In the case of C35U C72U, the “polymerase ribozyme fitness (log ratio)” value is -0.649.
Next, A37C A64U G84C A122G G136A: at most -4.2.
The same measure for C35U C85U C95A U102G C125A U145G: at most -4.2; for C35U G50A C79G G88C: at most -4.2.
Next, C35G G58C C75G C76U A89U C95G C108A A137C: at most -4.2.
In the case of C35G A122U C125U G141C, the “polymerase ribozyme fitness (log ratio)” value is at most -4.2.
Next, A37C A52C C54A C87U U145A: at most -4.2; C35U U55A C79U U111C G124U: at most -4.2.
The same measure for C35G G74C G81C C87G G143C G152U: at most -4.2; for C36A C87U C105A C125A: at most -4.2.
In the case of C35U U45A C79A G83A C85A C103U, the “polymerase ribozyme fitness (log ratio)” value is at most -4.2.
On to C35U A52G C116A G124A, for which the “polymerase ribozyme fitness (log ratio)” value is at most -4.2.
For C36A G117U U148C, the “polymerase ribozyme fitness (log ratio)” value is at most -4.2.
On to C36U G84C U134A, for which the “polymerase ribozyme fitness (log ratio)” value is at most -4.2.
In the case of C36A U56A U61A U148G, the “polymerase ribozyme fitness (log ratio)” value was at most -4.2.
In the case of C36U G42C U53A G59A U78A C87U, the “polymerase ribozyme fitness (log ratio)” value was at most -4.2.
With C35U G50U G83U C87A A115C C118G, the “polymerase ribozyme fitness (log ratio)” value is at most -4.2.
Next, C36U C93U C96G C114G C116A A138C U139G U148C G152A: -4.1; C35U C57U: 0.194.
The same measure for A37C C54A A64G A66C C93A: at most -4.2; for C35U C57G G86U G133A: -3.89; for C36G A49U U55A A121U A142U U148A: at most -4.2.
In the case of C35G U82A G94U G126A A138U, the “polymerase ribozyme fitness (log ratio)” value is at most -4.2.
As to C35U A40C C54A U90C C105A, the “polymerase ribozyme fitness (log ratio)” value was at most -4.2.
Take C35U U56A C95A C105U G126C: the “polymerase ribozyme fitness (log ratio)” value was -1.08.
Next, C35U A41G C63U G80U C87A C103A G124U U148G: at most -4.2.
For C36G G46U A47C U53A U55A U127C C149U, the “polymerase ribozyme fitness (log ratio)” value was at most -4.2.
The same measure for C35U A66G G80C C103A U145G: at most -4.2; for A37C A52U C132U: -4.13.
As for C35U A49U U56A G59C A91U, the “polymerase ribozyme fitness (log ratio)” value was at most -4.2.
Next, C36G A37U G86U A115U C116U G128C C132G G152C: at most -4.2; C35U A91G G117U A142U: at most -4.2; A37C C96U: -1.09.
On to C35G G92A C118G, for which the “polymerase ribozyme fitness (log ratio)” value is at most -4.2.
As for C35G C95G A97C C114G G124A A138G, the “polymerase ribozyme fitness (log ratio)” value is at most -4.2.
C35U A64C A89U A91U U101G A142C: the “polymerase ribozyme fitness (log ratio)” value is at most -4.2.
In the case of C35U A39C U78G C103A, the “polymerase ribozyme fitness (log ratio)” value is at most -4.2.
The same measure for A37C C54U C76U C93G U102C U139G: at most -4.2; for C35U G59C A60G C85U U104A A120U G128U A147G: at most -4.2.
Take A37C C54G G92U A97U A119U: the “polymerase ribozyme fitness (log ratio)” value is at most -4.2.
The same measure for C35U G42C U82G A110G C129U: at most -4.2; for C35G C57G C131G U134A: at most -4.2; for C35U A39G G84C A106G A120U G152A: at most -4.2.
Next, C36U A49U U82A A107C G133C: at most -4.2.
As to C35G C76U G92A C123G A137U, the “polymerase ribozyme fitness (log ratio)” value is at most -4.2.
Consider C36A C69U C95U U127C, for which the “polymerase ribozyme fitness (log ratio)” value is at most -4.2.
Next, C36A A49C C87G C103A C114U: at most -4.2; C35U U44G G65C C85U A107G C114G A115U U135A G140U: at most -4.2; C35U A49C C69A A110C C125U: at most -4.2.
C35U C85U A97U U111C U146C: the “polymerase ribozyme fitness (log ratio)” value was at most -4.2.
C35U A39C A98G U134C: the “polymerase ribozyme fitness (log ratio)” value is at most -4.2.
The same measure for C35U U44A G50A C54A G68C U90A A120C U144C: at most -4.2; for C35U A60G G136U: -3.08; for C35A U148A: at most -4.2.
As for C35U A47G C87A A91U C93G C116U A119U, the “polymerase ribozyme fitness (log ratio)” value was at most -4.2.
The same measure for C36A G84U U102A C103U U127C: at most -4.2.
The same measure for C36A G59A A137C: at most -4.2.
Take A37C C57A A97C C108A: the “polymerase ribozyme fitness (log ratio)” value is at most -4.2.
With C36A A91U, the “polymerase ribozyme fitness (log ratio)” value was at most -4.2.
Consider C36G G59A A113U, for which the “polymerase ribozyme fitness (log ratio)” value is at most -4.2.
Next, C35U G88C C103U: at most -4.2.
Next, C35U C93A A110G C114U U134G G141C A147U: at most -4.2; A37C G42U G84U G94C A97U C114U G140C: at most -4.2; C36U C51G C75G C93U C108U C125U G136A: at most -4.2.
Next, C36A U56A C76G C87A C123A: at most -4.2; C35U A91U G140U: at most -4.2.
Turning to C35U G84U A89U A97G G143A, the “polymerase ribozyme fitness (log ratio)” value was -2.66.
Next, C35U A41U G81A C85A G92A U109C A120U: at most -4.2; A37C C108G: at most -4.2; A37C A60G U61A C95U A97G C116A G117U: at most -4.2.
The same measure for C36U G62A A91C C96G A113U: at most -4.2; for A37C A52G U82C C85G C95U C105U A142C A150G: at most -4.2; for C36A C75U U77A C118G G136A: at most -4.2.
Next, C36U U55G C57U A66G A73G: at most -4.2; C36U C54U G59C A60C U78A C85U U145A: at most -4.2.
With A37C A41U A52C C118A, the “polymerase ribozyme fitness (log ratio)” value was -3.42.
Next, C35U C95G G100A: at most -4.2; C35U C95G G100U G143C: at most -4.2; C36G G88U C95G G141U U148C: at most -4.2.
